In publication PMC12290104, “PEAK1 maintains tight junctions in intestinal epithelial cells and resists colitis by inhibiting autophagy-mediated ZO-1 degradation” (Nature Communications, 2025):
Like-named read-outs stand apart in the source and are kept apart here. No constants are given. Whether binding was seen depends on the method and setting. Binding seen in cells or lysates may run through a third protein. Some results given as binding are weak or reduced against the parent protein; the word gives no strength. For some of these results: Sequences can lack the tags named with a protein.

Amino acid sequences for entries named in this document (tags omitted). A change or cut given only in a name is not applied to a line headed by its entry. Chains listed by the source or under a name are the forms on record and can include a tag or linker.
UniProt Q07157: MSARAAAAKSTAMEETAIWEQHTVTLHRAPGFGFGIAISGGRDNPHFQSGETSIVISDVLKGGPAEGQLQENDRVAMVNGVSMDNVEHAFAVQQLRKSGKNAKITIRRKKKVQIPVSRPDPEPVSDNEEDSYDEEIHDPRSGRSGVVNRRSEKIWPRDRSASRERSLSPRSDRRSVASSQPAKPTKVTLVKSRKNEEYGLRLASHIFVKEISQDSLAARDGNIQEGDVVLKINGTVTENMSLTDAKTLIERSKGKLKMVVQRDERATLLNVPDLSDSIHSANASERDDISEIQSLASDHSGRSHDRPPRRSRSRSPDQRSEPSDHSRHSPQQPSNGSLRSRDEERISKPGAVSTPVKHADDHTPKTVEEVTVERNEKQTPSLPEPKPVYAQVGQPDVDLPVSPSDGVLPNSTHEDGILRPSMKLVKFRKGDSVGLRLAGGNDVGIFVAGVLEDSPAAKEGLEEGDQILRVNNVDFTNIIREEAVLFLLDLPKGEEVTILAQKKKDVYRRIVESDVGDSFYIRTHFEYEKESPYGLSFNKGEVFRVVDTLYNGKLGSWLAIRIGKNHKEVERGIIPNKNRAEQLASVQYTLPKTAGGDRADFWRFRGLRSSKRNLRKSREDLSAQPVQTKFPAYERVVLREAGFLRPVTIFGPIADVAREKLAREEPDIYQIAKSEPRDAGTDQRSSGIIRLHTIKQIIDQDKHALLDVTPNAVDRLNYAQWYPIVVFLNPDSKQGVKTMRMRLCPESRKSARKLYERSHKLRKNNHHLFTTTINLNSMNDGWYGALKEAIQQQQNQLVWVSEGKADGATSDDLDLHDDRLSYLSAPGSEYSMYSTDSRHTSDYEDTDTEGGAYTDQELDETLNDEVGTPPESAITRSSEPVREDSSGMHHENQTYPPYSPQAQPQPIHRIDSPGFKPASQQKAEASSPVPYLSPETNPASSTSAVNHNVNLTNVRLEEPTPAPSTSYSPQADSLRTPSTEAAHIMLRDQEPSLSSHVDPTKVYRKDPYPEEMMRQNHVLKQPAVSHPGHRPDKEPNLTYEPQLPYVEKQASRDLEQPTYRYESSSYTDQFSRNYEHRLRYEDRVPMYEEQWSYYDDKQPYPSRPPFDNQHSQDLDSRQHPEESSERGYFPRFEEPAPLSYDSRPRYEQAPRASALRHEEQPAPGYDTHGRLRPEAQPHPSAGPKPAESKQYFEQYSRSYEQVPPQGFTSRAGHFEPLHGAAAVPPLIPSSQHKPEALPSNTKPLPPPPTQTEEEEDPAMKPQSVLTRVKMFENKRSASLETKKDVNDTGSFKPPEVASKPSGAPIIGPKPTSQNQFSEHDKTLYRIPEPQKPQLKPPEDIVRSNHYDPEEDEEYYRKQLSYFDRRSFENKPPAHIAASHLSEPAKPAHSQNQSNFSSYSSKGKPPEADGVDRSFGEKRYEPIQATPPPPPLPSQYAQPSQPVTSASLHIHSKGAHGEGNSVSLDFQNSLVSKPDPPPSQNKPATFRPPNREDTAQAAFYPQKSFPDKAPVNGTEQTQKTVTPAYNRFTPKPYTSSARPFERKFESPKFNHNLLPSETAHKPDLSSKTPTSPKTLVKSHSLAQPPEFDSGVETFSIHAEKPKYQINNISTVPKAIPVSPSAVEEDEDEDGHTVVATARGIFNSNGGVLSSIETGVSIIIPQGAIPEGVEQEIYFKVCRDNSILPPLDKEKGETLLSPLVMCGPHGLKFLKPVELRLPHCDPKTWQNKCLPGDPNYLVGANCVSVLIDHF
GFP-tagged mutant ZO-1 with a 1212-1217 amino acid deletion (Q07157, form named): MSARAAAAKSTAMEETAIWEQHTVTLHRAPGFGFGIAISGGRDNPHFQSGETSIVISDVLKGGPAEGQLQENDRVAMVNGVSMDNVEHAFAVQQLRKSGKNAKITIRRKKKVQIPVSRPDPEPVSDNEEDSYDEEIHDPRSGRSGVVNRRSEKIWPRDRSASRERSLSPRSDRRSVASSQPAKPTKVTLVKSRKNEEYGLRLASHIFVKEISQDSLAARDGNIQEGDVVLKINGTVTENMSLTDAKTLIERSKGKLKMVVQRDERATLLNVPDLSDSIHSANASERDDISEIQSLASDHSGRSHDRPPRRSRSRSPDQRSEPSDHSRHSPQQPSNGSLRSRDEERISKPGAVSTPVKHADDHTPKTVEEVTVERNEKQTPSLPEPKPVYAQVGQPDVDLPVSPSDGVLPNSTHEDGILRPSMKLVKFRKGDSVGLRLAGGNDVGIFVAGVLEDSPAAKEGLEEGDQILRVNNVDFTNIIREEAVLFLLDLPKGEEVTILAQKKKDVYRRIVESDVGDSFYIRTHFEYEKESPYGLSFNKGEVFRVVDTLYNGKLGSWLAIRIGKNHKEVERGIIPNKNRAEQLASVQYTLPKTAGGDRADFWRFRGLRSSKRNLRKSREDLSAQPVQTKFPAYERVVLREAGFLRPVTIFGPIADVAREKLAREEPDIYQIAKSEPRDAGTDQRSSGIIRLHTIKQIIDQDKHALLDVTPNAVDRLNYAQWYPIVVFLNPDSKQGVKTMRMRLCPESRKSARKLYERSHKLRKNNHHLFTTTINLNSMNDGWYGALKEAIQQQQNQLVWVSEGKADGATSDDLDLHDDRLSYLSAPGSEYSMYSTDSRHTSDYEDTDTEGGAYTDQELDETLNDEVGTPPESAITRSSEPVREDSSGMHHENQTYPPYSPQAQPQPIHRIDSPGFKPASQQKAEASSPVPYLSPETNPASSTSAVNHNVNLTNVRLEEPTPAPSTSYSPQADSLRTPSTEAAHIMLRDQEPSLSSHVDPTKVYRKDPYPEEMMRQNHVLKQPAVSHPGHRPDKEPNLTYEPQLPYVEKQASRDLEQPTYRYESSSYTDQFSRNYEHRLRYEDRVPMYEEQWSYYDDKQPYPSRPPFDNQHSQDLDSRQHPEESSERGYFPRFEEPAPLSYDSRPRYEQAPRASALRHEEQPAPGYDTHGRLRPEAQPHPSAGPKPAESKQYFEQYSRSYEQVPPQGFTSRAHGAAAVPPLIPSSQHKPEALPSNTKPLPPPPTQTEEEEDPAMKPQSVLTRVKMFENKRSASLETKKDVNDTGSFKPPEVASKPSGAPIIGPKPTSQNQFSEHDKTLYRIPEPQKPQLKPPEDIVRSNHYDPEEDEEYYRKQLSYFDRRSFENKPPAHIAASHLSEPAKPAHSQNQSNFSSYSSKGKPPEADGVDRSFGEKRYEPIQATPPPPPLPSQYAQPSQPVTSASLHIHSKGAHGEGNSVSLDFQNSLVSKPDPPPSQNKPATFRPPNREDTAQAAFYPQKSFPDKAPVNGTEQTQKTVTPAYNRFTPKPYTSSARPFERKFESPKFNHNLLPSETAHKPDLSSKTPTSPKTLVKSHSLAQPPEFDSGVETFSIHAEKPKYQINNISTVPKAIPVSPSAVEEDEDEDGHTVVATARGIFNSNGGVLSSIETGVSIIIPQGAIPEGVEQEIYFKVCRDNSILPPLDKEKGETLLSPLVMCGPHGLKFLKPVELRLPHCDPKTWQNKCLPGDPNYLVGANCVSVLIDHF
UniProt P41240: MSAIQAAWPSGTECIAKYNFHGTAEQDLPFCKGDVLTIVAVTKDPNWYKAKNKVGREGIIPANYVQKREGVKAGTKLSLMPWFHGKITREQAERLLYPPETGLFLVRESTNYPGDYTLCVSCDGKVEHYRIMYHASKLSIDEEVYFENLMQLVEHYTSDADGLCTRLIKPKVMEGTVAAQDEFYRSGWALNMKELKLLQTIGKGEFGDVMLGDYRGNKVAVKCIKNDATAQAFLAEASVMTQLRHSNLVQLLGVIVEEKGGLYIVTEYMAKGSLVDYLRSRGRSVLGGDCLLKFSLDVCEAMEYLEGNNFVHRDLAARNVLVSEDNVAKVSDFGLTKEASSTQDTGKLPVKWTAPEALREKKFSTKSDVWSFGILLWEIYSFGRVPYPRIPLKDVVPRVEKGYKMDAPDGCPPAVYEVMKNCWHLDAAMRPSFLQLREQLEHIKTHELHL

Columns and labels:
[1] = molecular target: FC-tagged PEAK1^WT (human) (UniProt Q9H792); assay: co-IP; HEK293T lysates overexpressing FC-Control, FC-tagged PEAK1 WT, truncations or mutants (in Fig. 5e with GFP-CSK co-overexpressed); co-precipitated ZO-1, CSK or Src read by blot
[2] = molecular target: FC-tagged PEAK1 S729/730 A (human) (UniProt Q9H792); assay: as above
[3] = molecular target: FC-tagged PEAK1 S723A (human) (UniProt Q9H792); assay: as above
[4] = molecular target: FC-tagged PEAK1 8×S-A (human) (UniProt Q9H792); assay: as above
[5] = molecular target: FC-tagged PEAK1 S718/719 A (human) (UniProt Q9H792); assay: as above
[6] = molecular target: T1, FC-tagged PEAK1 fragment spanning amino acids 700 to 750 (human) (UniProt Q9H792); assay: as above
T1 sequence: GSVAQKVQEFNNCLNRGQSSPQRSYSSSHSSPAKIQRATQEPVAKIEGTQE

[7] = molecular target: FC-tagged PEAK1 S725/726/727 A (human) (UniProt Q9H792); assay: as above
[8] = molecular target: ZO-1, endogenous in Caco-2 cells (human (endogenous in Caco-2)) (UniProt Q07157); assay: co-IP; endogenous proteins of Caco-2 lysates (RM buffer, 150 mM NaCl, 1% NP-40); anti-PEAK1, anti-ZO-1 or anti-CSK antibody and protein A sepharose, 4 °C; cells also PEAK1 knockout, CSK knockout, PEAK1 Y724F edited, 10 μM PP2 2 h, 100 nM BafA1 12 h
[9] = molecular target: PEAK1 (Pseudopodium-Enriched Atypical Kinase 1), endogenous in Caco-2 cells (human (endogenous in Caco-2)) (UniProt Q9H792); assay: as above
[10] = molecular target: GFP-tagged mutant ZO-1 with a 1212-1217 amino acid deletion (human) (UniProt Q07157); assay: co-IP; HEK293T cells transfected with GFP-tagged ZO-1 (WT) or Δ1212-1217; co-precipitated LC-3B and PEAK1 read by blot
[11] = molecular target: T2, GFP-tagged ZO-1 (human, UniProt Q07157 1-1748); assay: as above
T2 construct: ZO-1, human cDNA cloned into pTriEx-GFP; last truncation ends at 1748; also called GFP-ZO-1; GFP-tagged ZO-1 (WT); source: HEK293T, transfected, in lysate; also purified from HEK293T (anti-GFP magnetic beads, glycine pH 2.5 elution)

[12] = molecular target: PEAK1 (Pseudopodium-Enriched Atypical Kinase 1), endogenous in Caco-2 cells (human (endogenous in Caco-2)) (UniProt Q9H792); assay: co-IP; endogenous proteins of Caco-2 lysates (RM buffer, 150 mM NaCl, 1% NP-40); anti-PEAK1, anti-ZO-1 or anti-CSK antibody and protein A sepharose, 4 °C; cells also PEAK1 knockout, CSK knockout, PEAK1 Y724F edited, 10 μM PP2 2 h, 100 nM BafA1 12 h; remark: listed apart in the source
[13] = molecular target: ZO-1, endogenous in Caco-2 cells (human (endogenous in Caco-2)) (UniProt Q07157); assay: as above; remark: listed apart in the source

Molecule: CSK in HEK293T cell lysate (from UniProt P41240 1-450)
- binding [1]: binds

Molecule: ZO-1 in HEK293T cell lysate (from UniProt Q07157 1-1748)
- binding [2]: binds
- binding [3]: binds
- binding [4]: binds
- binding [5]: binds
- binding [1]: binds
- binding [6]: binds
- binding [7]: binds

Molecule: PEAK1 Y724F, expressed from the edited gene in Caco-2 cells (from UniProt Q9H792 1-1746)
- binding [8]: no binding

Molecule: PEAK1 phosphorylated at Y724, endogenous in Caco-2 cells (from UniProt Q9H792 1-1746)
- binding [8]: binds

Molecule: CSK, endogenous in Caco-2 cells (from UniProt P41240 1-450)
- binding [9]: binds

Molecule: PEAK1 in HEK293T cell lysate (from UniProt Q9H792 1-1746)
- binding [10]: binds weakly
- binding [11]: binds

Molecule: ZO-1, endogenous in Caco-2 cells (from UniProt Q07157 1-1748)
- binding [9]: binds

B1: Occludin, endogenous in Caco-2 cells (protein, UniProt Q16625 1-522)
chain: MSSRPLESPPPYRPDEFKPNHYAPSNDIYGGEMHVRPMLSQPAYSFYPEDEILHFYKWTSPPGVIRILSMLIIVMCIAIFACVASTLAWDRGYGTSLLGGSVGYPYGGSGFGSYGSGYGYGYGYGYGYGGYTDPRAAKGFMLAMAAFCFIAALVIFVTSVIRSEMSRTRRYYLSVIIVSAILGIMVFIATIVYIMGVNPTAQSSGSLYGSQIYALCNQFYTPAATGLYVDQYLYHYCVVDPQEAIAIVLGFMIIVAFALIIFFAVKTRRKMDRYDKSNILWDKEHIYDEQPPNVEEWVKNVSAGTQDVPSPPSDYVERVDSPMAYSSNGKVNDKRFYPESSYKSTPVPEVVQELPLTSPVDDFRQPRYSSGGNFETPSKRAPAKGRAGRSKRTEQDHYETDYTTGGESCDELEEDWIREYPPITSDQQRQLYKRNFDTGLQEYKSLQSELDEINKELSRLDKELDDYREESEEYMAAADEYNRLKQVKGSADYKSKKNHCKQLKSKLSHIKKMVGDYDRQKT
- binding [12]: binds
- binding [13]: binds
